Reference: the supplement of paper PMC11417369
± gives the standard deviation of the averaged measurements. This is one part of the list.

system: PfAP2-LT AP2 domain (GST-tagged); test: gcPBM binding intensity (ln(normalized median fluorescence intensity)); higher = stronger DNA binding
Summary of the method: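 An Agilent 4 × 180k array carrying primer-extended double-stranded 36-bp intergenic genomic probes and negative controls received GST-tagged P. falciparum DNA-binding domains expressed in E. coli, about 25 μg on average, for 1 h. The binding buffer contained 1× PBS, 1% milk, 0.2 mg/ml BSA, 0.5% salmon testes DNA and 0.03% Triton X-100. Binding intensity is the top Masliner-normalised natural-log median intensity across replicate spots of either probe orientation, read after Alexa488 anti-GST antibody staining and a 488 nm scan.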

Sequence | gcPBM binding intensity (ln)
AGAAAAGAAATTAAATGTACACAACTATAACCAAAT [XGTACX_site8084] | 9.03 ± 0.44
AAAAAAAAAAAATAAAGTACTAAATAATACATTATA [XGTACX_site6203] | 8.54 ± 0.45
TGTACAACAATTTTTGCACACACCAAAACATAAAAT [CACACA_site1598] | 9.36 ± 0.29
ATTATGTTATTATTTTGTACACATAAATAATACGTT [XGTACX_site816] | 8.96 ± 0.47
TGTTTCTTATTTTTTTCACACACTAATCATTTCAAA [CACACA_site8695] | 8.97 ± 0.54
GAACAAAAATACTTATGTACACATTAGCAAGGAAAA [XGTACX_site5622] | 8.89 ± 0.5
TCATATGTGAAACACACACACACACCCAAAAAAACA [CACACA_site3247] | 10.06 ± 0.028
AAAAAAAATATCCGACGTACTATTTTCGTAGAAATA [XGTACX_site6292] | 8.63 ± 0.4
AAACAAAAAAGAAGCACACATATATATATATATATG [CACACA_site2456] | 9.31 ± 0.38
TATACGCATATATACACACACATATATATATATATA [CACACA_site3416] | 10.1 ± 0.11
ATCTGAAAAATTAATAGTACAATTAATAATTAAACC [XGTACX_site8523] | 8.72 ± 0.42
ACAAATAAATATTCGCGTACTTATATAATATTACGA [XGTACX_site6428] | 8.84 ± 0.37
TGTTAATTTCATTTTCTACACACCTATCCTTTTTTT [CACACA_site8157] | 9.07 ± 0.65
AACAAACAAATAGTTTATTTTGATTTTTTTAAAAAT [CACACA_negctrl_site693] | 8.19 ± 0.37
CATACATACATATATACACACATATATAATAATATA [CACACA_site2678] | 9.19 ± 0.39
TACGAATTAAAAAAGAGTACAAATAAAATATCTACA [XGTACX_site7412] | 8.65 ± 0.48
AATTAGCTCAAAGGTTGTACAAATATATTTTAATGG [XGTACX_site2352] | 8.66 ± 0.48
TTTTAAACACCAATCAAAAAAATATAAATATAAATA [TGCATGCA_negctrl_site552] | 8.45 ± 0.48
AATATAAATACTCCTACACACATATAAATATAAATA [CACACA_site7419] | 9.07 ± 0.38
TCCACATTAATGTAATGTACAAAATTAGAAAATAAA [XGTACX_site6287] | 8.61 ± 0.45
TTTTGATTAAGTGAATTTTTTTATTTATATAAATAT [TGCATGCA_negctrl_site479] | 8.37 ± 0.41
TTACATTGTAAAAAGTGTACATATAATTTAATTAAT [XGTACX_site1834] | 8.6 ± 0.4

Sequence | gcPBM binding intensity (ln)
GGATTACAAATAGGTTGTACGTTTTTTTTTTTTTCT [XGTACX_site3605] | 8.72 ± 0.57
ATGTAGACTGAAACCACACACACATATATATATATA [CACACA_site606] | 10.2 ± 0.2
AAAAAAAATAATTTGCGTACATAAAAATTTATAGGA [XGTACX_site3016] | 8.54 ± 0.49
TCCGTATATTTATACGCATGCATTATGAACATTGTT [TGCATGCA_site613] | 8.9 ± 0.33
AAATTTTTTTTTGTCATATGATGTTTGAACCCAAAT [CACACA_negctrl_site1659] | 8.55 ± 0.55
AAAAAAAAAAAAAAATGTACCCATAAAATAAGCATT [XGTACX_site8576] | 8.81 ± 0.47
TATATTATATATATATGTACATATGGCAAAACATTA [XGTACX_site7958] | 8.72 ± 0.47
AATCACAACGAACACACACACAAAAAAAAAAAAAAA [CACACA_site6790] | 9.34 ± 0.63
TTTTTTACAATTAACACACTCAAAAATAATATTAAA [CACACA_site5198] | 8.3 ± 0.43
AATTTTTTAAATGTGTGTACATATTATTTAAATAAT [XGTACX_site5967] | 8.75 ± 0.47
AAATACTGATTTGGTTGTACATGTGCACTATATAAC [XGTACX_site3795] | 9.04 ± 0.42
AAAAATTAAATGTACACACACCTTAAACAATGTCAT [CACACA_site6958] | 9.23 ± 0.33
TATAATCTAACATAATGTACATGTATATGCACTTTA [XGTACX_site369] | 8.75 ± 0.49
ATAAATATATTTATATGTACATATAATTTTACATAT [XGTACX_site5440] | 8.96 ± 0.49
ATATATATATCTAATTGTACATATTTTATAAATAAG [XGTACX_site4840] | 8.45 ± 0.35
AGACAAAATGTTTGAAGTACTTTTTATCAAATTAAA [XGTACX_site8885] | 8.45 ± 0.54
AAAAAAAAAAAACACACACACACACCCATACATACA [CACACA_site707] | 10.4 ± 0.14
ATATATATTTATATTTGTACGAATTAAAATTTTTTA [XGTACX_site5200] | 8.45 ± 0.42
TTATCAATAAAATGCACACACTGTAATATTATTAAA [CACACA_site6055] | 8.99 ± 0.3
ATTTAAAACAAAAGTAGTACGTCTAATAAATTCAAC [XGTACX_site4344] | 8.74 ± 0.46
ATAGCTTTTATTTAAAGTACAAAAAGGATGTTGAAA [XGTACX_site3810] | 8.46 ± 0.44
TTAATTATTATATAAGTGCAATAATAAAAAGTTGTA [GTGCAC_site9552] | 8.56 ± 0.39
